# Measurements as given in PMC8224564.
# Protein sequences, listed by entry. Tags and fused reporters are not part of them. Lines headed by an entry give the natural chain unless they say otherwise; changes in a name come on top. Residues count along the entry.
# UniProt Q8VIM0, residues 20-281: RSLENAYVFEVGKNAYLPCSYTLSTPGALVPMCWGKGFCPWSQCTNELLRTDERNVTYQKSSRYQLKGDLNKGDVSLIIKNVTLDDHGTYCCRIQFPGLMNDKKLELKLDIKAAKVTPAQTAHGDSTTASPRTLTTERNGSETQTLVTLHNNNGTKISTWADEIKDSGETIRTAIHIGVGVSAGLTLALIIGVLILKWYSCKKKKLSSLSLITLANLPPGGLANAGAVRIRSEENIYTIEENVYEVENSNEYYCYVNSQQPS
# UniProt Q03145, residues 26-977: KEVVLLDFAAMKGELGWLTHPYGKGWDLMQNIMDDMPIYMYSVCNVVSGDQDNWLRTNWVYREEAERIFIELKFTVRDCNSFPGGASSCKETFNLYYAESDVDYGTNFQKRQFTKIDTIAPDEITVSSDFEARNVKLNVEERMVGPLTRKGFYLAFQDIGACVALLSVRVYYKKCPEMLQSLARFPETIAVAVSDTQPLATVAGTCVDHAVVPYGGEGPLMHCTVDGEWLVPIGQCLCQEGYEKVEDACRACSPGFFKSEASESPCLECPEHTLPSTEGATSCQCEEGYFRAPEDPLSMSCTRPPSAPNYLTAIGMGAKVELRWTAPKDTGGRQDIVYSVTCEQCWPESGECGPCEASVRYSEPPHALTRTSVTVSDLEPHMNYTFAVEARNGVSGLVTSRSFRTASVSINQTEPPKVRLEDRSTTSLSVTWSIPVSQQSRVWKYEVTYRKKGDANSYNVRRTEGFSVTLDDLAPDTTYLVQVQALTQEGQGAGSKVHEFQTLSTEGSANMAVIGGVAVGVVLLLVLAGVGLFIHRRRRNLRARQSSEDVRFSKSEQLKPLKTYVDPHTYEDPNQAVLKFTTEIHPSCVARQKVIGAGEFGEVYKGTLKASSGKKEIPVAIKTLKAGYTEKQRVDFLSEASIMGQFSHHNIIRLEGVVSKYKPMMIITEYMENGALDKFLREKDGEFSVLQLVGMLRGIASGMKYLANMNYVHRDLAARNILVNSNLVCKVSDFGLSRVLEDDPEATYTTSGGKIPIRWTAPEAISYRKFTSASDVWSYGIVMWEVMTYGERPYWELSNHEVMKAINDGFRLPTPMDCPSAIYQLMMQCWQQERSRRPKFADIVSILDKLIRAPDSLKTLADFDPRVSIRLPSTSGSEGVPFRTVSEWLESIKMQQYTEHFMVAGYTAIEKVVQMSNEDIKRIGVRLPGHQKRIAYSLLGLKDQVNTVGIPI
# UniProt P29317: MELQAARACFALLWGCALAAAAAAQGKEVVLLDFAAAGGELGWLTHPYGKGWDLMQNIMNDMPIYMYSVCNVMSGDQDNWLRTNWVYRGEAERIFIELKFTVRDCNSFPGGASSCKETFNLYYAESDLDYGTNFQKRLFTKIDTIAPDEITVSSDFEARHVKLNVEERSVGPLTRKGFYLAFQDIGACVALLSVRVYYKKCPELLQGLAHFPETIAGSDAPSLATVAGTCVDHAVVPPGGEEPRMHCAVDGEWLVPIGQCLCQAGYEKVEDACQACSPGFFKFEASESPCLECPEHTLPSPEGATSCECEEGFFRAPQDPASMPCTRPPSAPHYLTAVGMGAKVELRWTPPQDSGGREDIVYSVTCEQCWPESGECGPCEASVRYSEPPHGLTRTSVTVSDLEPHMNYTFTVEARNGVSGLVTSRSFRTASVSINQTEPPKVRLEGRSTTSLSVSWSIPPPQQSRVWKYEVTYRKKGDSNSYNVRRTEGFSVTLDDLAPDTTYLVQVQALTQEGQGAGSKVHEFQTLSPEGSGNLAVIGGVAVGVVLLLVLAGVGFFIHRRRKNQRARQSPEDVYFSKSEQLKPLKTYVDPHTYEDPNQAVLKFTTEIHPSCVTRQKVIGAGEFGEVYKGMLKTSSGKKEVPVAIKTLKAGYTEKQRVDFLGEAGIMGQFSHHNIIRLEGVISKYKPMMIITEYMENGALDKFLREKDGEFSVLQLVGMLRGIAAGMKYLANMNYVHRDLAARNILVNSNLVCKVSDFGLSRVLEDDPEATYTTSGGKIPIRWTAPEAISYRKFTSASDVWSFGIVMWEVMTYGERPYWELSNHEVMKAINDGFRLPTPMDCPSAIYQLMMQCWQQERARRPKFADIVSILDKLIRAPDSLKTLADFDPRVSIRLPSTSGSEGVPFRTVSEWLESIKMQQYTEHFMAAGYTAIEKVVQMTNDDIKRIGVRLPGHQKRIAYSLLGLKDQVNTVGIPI
# EphA2^ECR: residues 24-537 of P29317
# No constants are given. Whether binding was seen depends on the method and setting. Binding seen in cells or lysates may run through a third protein. Some binding calls cover weakened binding; strength is not graded here. For some of these results: Where a sequence is shown, tags or fusion partners need not be part of it.
# T1: HA-tagged Tim-4 (UniProt Q6U7R4)
# T1 sequence: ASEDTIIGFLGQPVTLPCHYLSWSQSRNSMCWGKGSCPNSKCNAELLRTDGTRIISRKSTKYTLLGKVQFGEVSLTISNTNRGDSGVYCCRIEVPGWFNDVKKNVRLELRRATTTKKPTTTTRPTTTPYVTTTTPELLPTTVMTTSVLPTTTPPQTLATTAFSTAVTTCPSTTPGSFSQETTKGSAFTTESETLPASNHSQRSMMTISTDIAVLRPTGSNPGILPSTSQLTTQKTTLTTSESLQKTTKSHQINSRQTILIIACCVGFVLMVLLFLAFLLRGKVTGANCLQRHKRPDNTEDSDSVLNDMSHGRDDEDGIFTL
# T2: Tim-1 (UniProt Q5QNS5)
# T2 sequence: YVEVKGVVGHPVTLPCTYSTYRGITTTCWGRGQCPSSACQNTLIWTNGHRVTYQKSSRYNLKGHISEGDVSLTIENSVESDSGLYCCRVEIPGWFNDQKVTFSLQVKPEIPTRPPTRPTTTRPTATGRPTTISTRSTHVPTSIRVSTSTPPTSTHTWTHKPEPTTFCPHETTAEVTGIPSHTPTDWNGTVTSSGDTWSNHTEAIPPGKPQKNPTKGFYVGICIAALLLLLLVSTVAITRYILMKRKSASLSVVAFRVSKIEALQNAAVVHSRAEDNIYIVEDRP
# B1: Tim-4 (endogenous, mouse lymph node) (receptor, UniProt Q6U7R4 23-343)
# chain: T1 sequence
# B2: the extracellular region of Tim-4 (domain or fragment, UniProt Q6U7R4 23-279)
# chain: ASEDTIIGFLGQPVTLPCHYLSWSQSRNSMCWGKGSCPNSKCNAELLRTDGTRIISRKSTKYTLLGKVQFGEVSLTISNTNRGDSGVYCCRIEVPGWFNDVKKNVRLELRRATTTKKPTTTTRPTTTPYVTTTTPELLPTTVMTTSVLPTTTPPQTLATTAFSTAVTTCPSTTPGSFSQETTKGSAFTTESETLPASNHSQRSMMTISTDIAVLRPTGSNPGILPSTSQLTTQKTTLTTSESLQKTTKSHQINSRQT
# B3: Cdon (receptor, UniProt Q32MD9 25-1250)
# chain: DLAPYFISEPLSAVQKLGRPVVLHCSAKPVTARISWLHNGKRLDRNTEQIKIHRGTLTILSLNPSLSGCYQCVANNSVGAVVSGPATVSAAALGDFDSSTMHVITAEEKNTGFIGCRVPESNPKAEVRYKIRGKWLKHSTGNYIILPSGNLQVLNVSSKDKGSYKCAAYNPVTSELKVEPTGRKLLVSRPSSNGFHILHPALSQALAVLPHSPVTLECVVSGVPASQVYWLKDGQDAVAGSNWRRLYSHLATASIDPADSGNYSCVVGNKSGDVKHVTYMVNVLEHASISKGLHDQKVSLGATVHFTCDVHGNPAPNRTWFHNAQPIHPSSRHLTEGNVLKITRVVMEDSGLYQCVADNGIGFMQSTGRLQIEQDSGWKPVIVTAPANIEVMDGDFVTLSCNATGVPVPVIHWYGRHGLITSHPSQVLRSKPRKSHLFRPGDLDLEPVYLIMSQAGSSSLSIQAVTLEHAGKYTCEATNKHGSTQSEAFLTVVPFETNTKAESVTPSEASQNDERDPQDGSESSLLNLFPVKVHPSGVELPAERNASVPDAPNILSPPQTHMPDTYNLVWRAGRDGGMPINAYFVKYRKLDDGSGAVGSWHTVRVPGSENELHLTELEPSSLYEVLMVARSAVGEGQPAMLTFRTSKEKMASSKNTQASFPPVGVPKRPVTAEASNSNFGVVLTDSSRHSGVPEAPDRPTISMASETSVYVTWIPRANGGSPITAFKVEYKRMRTSDWLVAAEDIPPSKLSVEVRSLEPGSIYKFRVIAINHYGESFRSSASRPYQVAGFPNRFSNRPITGPHIAYTEAVSDTQIMLKWTYVPSSNNNTPIQGFYIYYRPTDSDNDSDYKRDVVEGSKQWHTIGHLQPETSYDIKMQCFNEGGESEFSNVMICETKVKRVPGASDYPVKELSTPPSSSGNAGNVGPATSPARSSDMLYLIVGCVLGVMVLILMVFIALCLWKSRQQSTIQKYDPPGYLYQGSEINGQMVEYTTLSGAARINGSVHGGFLSNGCSHLHHKGPSGVNGTLSGNINGGLYSAHTNSLTRACVEFEHPHHLVNSGGVYTAVPQMDPLECINCRNCRNNNRCFTKTNSPLPVVPVVASYPQGGLEMKPLNAMKVPVCPASTVPDHGQLPDDCVKDSVAPIPTQHTCCQDNISDINSDSTEDTAEFSRGDSSGHSEAEDKVFSWNPLILSPVLEDCGEKTARSPPGPPLDGLSVVLQQAQET
# Key:
# HA-tagged Tim-4 [1] = target: T1, HA-tagged Tim-4; assay: co-IP; 293T cells co-transfected, lysates incubated with anti-HA antibody-conjugated agarose beads, 4 °C, 2 h; immunoblot
# Tim-1 = target: T2, Tim-1; assay: as above
# Tim-3 = Tim-3 (UniProt Q8VIM0); assay: as above
# HA-tagged Tim-4 [2] = target: T1, HA-tagged Tim-4; assay: proximity ligation; LR73 cells transfected, fixed with 4% paraformaldehyde; Duolink PLA with anti-HA and anti-Myc (methods) or anti-EphA2 antibodies; confocal microscopy
# [3] = target: EphA2 (endogenous, mouse lymph node) (mouse (endogenous in lymph nodes)) (UniProt Q03145); assay: co-IP; endogenous proteins; lysate of mouse lymph node cells, anti-EphA2 antibody and protein A/G agarose beads; immunoblot
# EphA2^ECR = EphA2^ECR (UniProt P29317); assay: pull-down; 293T cells co-transfected, lysates incubated with glutathione agarose beads to precipitate the GST-tagged protein; immunoblot
molecule,measurement,setting,value
EphA2 (from UniProt P29317 24-976) (receptor),binding,HA-tagged Tim-4 [1],binds
same,binding,Tim-1,binds
same,binding,Tim-3,no binding
same,binding,HA-tagged Tim-4 [2],binds
B1,binding,[3],binds
B2,binding,EphA2^ECR,binds
B3,binding,HA-tagged Tim-4 [1],no binding
